Laboratory results from PubChem BioAssay AID686979 (National Center for Advancing Translational Sciences (NCATS), 2013).
Where “and” joins values, the source holds several entries; their conditions need not be identical. Equal values may be shown once. Hit rate of the full screen: of about 420,000 compounds, about 50,000 (12%) were called active. This list was built around the results that the source calls inconclusive (neither active nor inactive); the mix of calls is not that of the screen. Calls come from the whole dose curve; as a rule, active = well fitted inhibition curve with a large enough effect; inconclusive = small, poorly fitted or top-dose-only effect; inactive = flat fitted curve, though single readings scatter. Potencies beside an inconclusive call are fits to weak or partial responses and may not hold up.

Assay: qHTS for Inhibitors of human tyrosyl-DNA phosphodiesterase 1 (TDP1): qHTS in cells in presence of CPT; note: nearly all actives have a fitted effect of over 55% in size
Conditions: chicken DT40 Tdp1-/-;hTDP1 cells + 20 nM CPT, ATP luminescence, 48 h; activity change, negative = growth inhibition: at 46.2 µM (top of the series) unless noted
Summary of the method: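 Chicken DT40 Tdp1-/- cells complemented with human TDP1, 400 cells/well, exposed to compounds plus 20 nM camptothecin for at least 48 h at 37 C; viability read as ATP content by CellTiter-Glo luminescence.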
% is set by controls: 0 for no effect and ±100 for the full control effect; potency is the fitted concentration of half-maximal effect; tags give direction and shape of the fitted curve.

SMILES | Potency | activity change, negative = growth inhibition
O=C(NC(=S)Nc1cccc2cnccc12)c1ccccc1 | inconclusive: 2.31 µM [inhibitor, partial curve] | –
COc1ccc(Cn2c(=O)c3ccccc3n3c(-c4cccc(OC)c4OC)nnc23)cc1 | inconclusive: 5.17 µM [inhibitor, single point] | –
CNC(=O)c1ccc(CN(C)C(=O)/C=C/c2ccc(S(=O)(=O)N3CCCCCC3)cc2)cc1 | active: 23.1 µM | –
COc1ccc(OCCN2C(=O)NC3(CCc4ccccc4C3)C2=O)cc1 (centres undefined) | – | inactive: -24.8%
Cc1ccc(CNC(=O)c2cc3c(s2)-c2c(C)cccc2OC3)cc1 | – | inactive: -27.4%
Cc1cc2c(n1-c1ccc(Cl)cc1)CC(C)(C)CC2=O | inconclusive: 29.1 µM [inhibitor, single point] | –
CC(C(=O)N1CCCc2ccccc21)N1CCN(S(=O)(=O)c2ccccc2F)CC1 (centres undefined) | inconclusive: 29.1 µM [inhibitor, single point] | –
CCOC(=O)c1c(NC(C)=O)c2c3c(sc2n1Cc1nc(-c2ccccc2Cl)oc1C)CCCC3 | inconclusive: 29.1 µM [inhibitor, single point] | –
O=c1c(Cc2c(F)cccc2Cl)c(O)ccn1CCCn1ccnc1 | – | inactive: -19.7%
Cc1cc[n+](CCc2ccccc2)cc1C | inconclusive: 29.1 µM [inhibitor, single point] | –
CSCC[C@@H](N)C(=O)O | – | inactive: -14.3%
COc1cc(C(=O)OCC(=O)NCc2ccc(F)cc2)cc(NC(=O)c2cccs2)c1OC | inconclusive: 14.6 µM [inhibitor, single point] | –
Cc1ccc(C(=O)Nc2ccsc2C(=O)O)cc1 | inconclusive: 18.4 µM [inhibitor, partial curve] | –
O=C(CSc1nc2ccccc2c(=O)n1-c1ccc(F)cc1)Nc1cc(S(=O)(=O)N2CCOCC2)ccc1Cl | inconclusive: 7.31 µM [inhibitor, partial curve] | –
Cc1cccc(C)c1NC(=O)c1ccc(CN2CCc3ccccc3C2)cc1 | active: 20.6 µM | –
CN(C)CCCNc1cc(C(C)(C)C)nc2c(-c3ccccc3)cnn12 | inconclusive: 29.1 µM [inhibitor, single point] | –
Cc1cc(C)cc(NC(=O)N2CCN(c3cc(-c4noc(C)n4)ccc3C)CC2)c1 | inconclusive: 25.9 µM [inhibitor, single point] | –
CCN(CC)c1ccc(NC(=O)COC(=O)Cc2ccsc2)cc1 | inconclusive: 29.1 µM [inhibitor, single point] | –
CCOC(=O)N1CCN(c2ccc(C(=O)CC)cc2F)CC1 | inconclusive: 14.6 µM [inhibitor, partial curve] | –
O=C(CC1SC(N2CCOCC2)=NC1=O)Nc1ccc(Cl)c(C(F)(F)F)c1 (centres undefined) | inconclusive: 23.1 µM [inhibitor, single point] | –
NC(=O)c1cccn1-c1ncc(C(F)(F)F)cc1Cl | – | inactive: -5.86%
CC(C)OC(=O)C(C(=O)OC(C)C)=C1SC=CS1 | inconclusive: 18.8 µM [inhibitor, single point] | –
CCOC(=O)C1=C(C)NC(C)=C(C(=O)OCC)C1c1cn(-c2ccccc2)nc1-c1ccco1 | – | inactive: -18.1%

SMILES | Potency | activity change, negative = growth inhibition
COc1ccc(Br)cc1S(=O)(=O)NCc1ccccc1 | – | inactive: -5.01%
Cc1cc(C)n2nc(C(=O)OC(C)C(=O)c3cc(C)c(C)cc3C)nc2n1 (centres undefined) | – | inactive: 9.74%
COc1ccc(-c2csc(C(O)c3ccc(F)cc3)n2)cc1 (centres undefined) | inconclusive: 23.1 µM [inhibitor, single point] | –
O=C(NCc1ccccc1)C(c1ccc(-c2ccccc2)cc1)N1CCN(C(=O)C2CCCO2)CC1 (centres undefined) | inconclusive: 29.1 µM [inhibitor, single point] | –
CC(C)Cn1cc(F)c(=O)n(CC(C)C)c1=O | – | inactive: -12.8%
CCn1c(N2CCN(S(=O)(=O)CC)CC2)nc2ccccc21 | – | inactive: 4.87%
CC(C)Sc1nc2c(c(=O)[nH]1)C(c1cccs1)C1=C(CC(C)(C)CC1=O)N2 (centres undefined) | inconclusive: 29.1 µM [inhibitor, single point] | –
O=C(CSc1nnc(-c2cccnc2)n1-c1ccccc1)Nc1ccccc1 | inconclusive: 4.11 µM [inhibitor, partial curve] | –
CN(C)CCN(Cc1ccco1)C(=O)c1oc2ccccc2c1NC(=O)c1cccc(F)c1 | inconclusive: 23.1 µM [inhibitor, single point] | –
CCCCCCCNC(=O)c1cc(-c2ccncc2)nc2ccccc12 | inconclusive: 29.1 µM [inhibitor, single point] | –
COc1ccc(CNCc2c(C(=O)O)n(Cc3ccc(F)cc3)c3cc(C)ccc23)cc1OC | active: 20.6 µM | –
Cc1ccc(OCc2cc(C(=O)N(C)CCc3ccccn3)no2)cn1 | – | inactive: -32.6%
N#Cc1c(N2CCCCC2)nc(N2CCCCC2)c2c1CCN(Cc1ccccc1)C2 | inconclusive: 25.9 µM [inhibitor, partial curve] | –
COc1ccc2o/c(=N\O)c(C(=O)Nc3ccccc3OC)cc2c1 | active: 3.66 µM | –
Cc1ccc(C(=O)NC(N2CCCC2)C(Cl)(Cl)Cl)cc1 (centres undefined) | – | inactive: -19.7%
CNc1ncnc2c1ncn2[C@@H]1O[C@H](CO)[C@@H](O)[C@H]1O | inactive and inconclusive: 8.2 µM [inhibitor, partial curve] | –
CC(C)(C)c1ccc(C(=O)NCc2nnc(SCC(=O)NC3CCCCC3)o2)cc1 | active: 8.2 µM | –
COc1ccc(C(=O)/C=C/c2cn(CC(O)CN3CCOCC3)c3ccccc23)cc1 (centres undefined) | inconclusive: 18.4 µM [inhibitor, single point] | –
O=C(CSc1nc(=O)[nH]c2c1CCCC2)NCc1ccc(F)cc1 | inconclusive: 14.6 µM [inhibitor, single point] | –
COc1ccc(CC(=O)NCCS(=O)(=O)N2CCN(c3ccc(F)cc3)CC2)cc1OC | inconclusive: 23.1 µM [inhibitor, single point] | –
Cc1cc(C(=O)CSc2nnc(-c3ccc(F)cc3)o2)c(C)n1CC1COc2ccccc2O1 (centres undefined) | inconclusive: 23.1 µM [inhibitor, single point] | –
COc1cccc2c1C1(O)C2CCCCCCCCCC12OCCCO2 (centres undefined) | inconclusive: 9.2 µM [inhibitor, partial curve] | –
COCCn1c(C)cc(O)c(C(c2ccc(F)cc2)N2CCN(c3ccccc3)CC2)c1=O (centres undefined) | – | inactive: -7.08%

SMILES | Potency | activity change, negative = growth inhibition
N=c1c(S(=O)(=O)c2ccc(Cl)cc2)cc2c(=O)n3ccccc3nc2n1C1CCCCC1 | inconclusive: 20.6 µM [inhibitor, single point] | –
COc1ccccc1OCCN1CSC(=S)N(C)C1 | active: 1.16 µM | –
Cc1ccc(Cc2c(C3CCCCC3)nc3c(C)cc(Br)cn23)cc1 | inconclusive: 20.6 µM [inhibitor, single point] | –
O=C(CSc1ncnc2c1cnn2-c1ccccc1)NCC1CCCO1 (centres undefined) | inconclusive: 18.4 µM [inhibitor, single point] | –
COc1ccccc1NC(=O)c1sc2nc3c(cc2c1N)CN(Cc1ccccc1)CC3 | active: 14.6 µM | –
COc1ccccc1N(C(=O)c1snc(C(N)=O)c1N)C(C(=O)NC1CCCC1)c1ccco1 (centres undefined) | inconclusive: 29.1 µM [inhibitor, single point] | –
CCOC(=O)C1=C(C)Nc2ccccc2N=C1NC(=O)Cc1ccc(OC)cc1 | – | inactive: -13.5%
OCCOCCn1c(CCNc2nc(-c3ccc(Cl)cc3)cs2)nc2cc(Cl)c(Cl)cc21 | inconclusive: 32.6 µM [inhibitor, single point] | –
COc1ccc(CCN2C(=O)/C(=C\c3ccco3)SC2=S)cc1OC | inconclusive: 16.4 µM [inhibitor, single point] | –
COc1ccc(NC(=O)c2cc(C3CCCCN3S(=O)(=O)c3ccc(F)cc3F)on2)c(C)c1 (centres undefined) | inconclusive: 14.6 µM [inhibitor, partial curve, poor fit] | –
N[C@@H](CC(=O)O)C(=O)O | inactive | –
Clc1cc(-c2ccccc2)nc(-c2ccccc2)n1 | – | inconclusive: -31.5% [inhibitor]
O=c1c2ccccc2cnn1-c1ccc(Cl)cc1 | – | inactive: 1.02%
O=C(O)c1cc(-c2ccc(-c3c(-c4ccc5c(c4)OCO5)noc3-c3ccsc3)cc2)nc2ccccc12 | inconclusive: 35.5 µM [inhibitor, single point] and inconclusive: 29.1 µM [inhibitor, single point] | –
O=C(c1cccnc1)N1CCN(Cc2ccc3ccccc3c2)CC1 | inconclusive: 20.6 µM [inhibitor, single point] | –
O=C(Nc1ccccc1)c1ccc(S(=O)(=O)NCc2cccnc2)cc1 | – | inactive: -50.4%
CC1CCN(C(=O)CCNS(=O)(=O)c2ccc(Cl)cc2)CC1 | – | inactive: 0.152%
CN(c1ccccc1)S(=O)(=O)c1cccc(NC(=O)CSc2ncc(C(F)(F)F)cc2Cl)c1 | – | inactive: 9.11%
CCC(=O)Nc1cc(=O)[nH]c2nc(-c3ccc(Cl)cc3)nn12 | inconclusive: 29.1 µM [inhibitor, single point] | –
COc1ccc(-n2c(C)cc(/C=C3\C(=N)N4N=C(CC(=O)N5CCOCC5)SC4=NC3=O)c2C)c(OC)c1 | inconclusive: 29.1 µM [inhibitor, single point] | –
O=C(CSc1nnc(-c2ccccc2)c(-c2ccccc2)n1)Nc1ccc(Br)cn1 | inconclusive: 23.1 µM [inhibitor, single point] | –
CCc1cc(=O)[nH]c(SCc2nc(-c3ccccc3)no2)n1 | inconclusive: 29.1 µM [inhibitor, single point] | –
Cc1cccc(CC(=O)NCc2nc3cccnc3n2Cc2ccc(F)cc2)c1 | inconclusive: 16.4 µM [inhibitor, partial curve] | –
